# Reference: PubChem BioAssay AID938 (National Center for Advancing Translational Sciences (NCATS), 2007)
# “And” between values parts separate entries of the source, which are not always exact repeats. Identical values can stand only once. Screen size: about 73,000 compounds; about 1,800 (2.5%) were called active. Inconclusive results (about 13%) are left out. Calls come from the whole dose curve; as a rule, active = well fitted activation curve with a large enough effect; inconclusive = small, poorly fitted or top-dose-only effect; inactive = no such curve, though single readings can be large or run the other way. The entries are a selection whose mix differs from that of the whole data set. More than one record can exist for a structure, and the calls need not agree.
# Experiment: qHTS Assay for Agonists of the Thyroid Stimulating Hormone Receptor: Activators of Intracellular cAMP Concentrations in Parental HEK 293; note: nearly all actives have a fitted effect of over 55% in size; for activation: % of control where 0% means no effect
# Details: parental HEK293 CNG cAMP sensor, membrane potential fluorescence; series mostly up to 57.1 µM; activation: at the top concentration
# Method in brief: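 Parental HEK 293 cells stably expressing a modified CNG channel (no TSHR) report cAMP rise as membrane depolarization. Membrane potential dye with 100 uM RO 20-1724 was loaded for 60 min at room temperature, then compound added for 30 min; fluorescence read at 590 nm.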
# Potency is the fitted concentration of half-maximal effect.
Structure (SMILES),activation,Potency
CCN1C(=O)/C(=C2/Sc3ccc(OC)cc3N2C)SC1=Nc1cccc(O)c1,inactive: -39.8%,
Cc1cccc([C@@H]2CN(C)CCc3c2cc(O)c(O)c3Cl)c1,,active: 25.1 µM
COC(=O)c1[nH]c2ccccc2c1NC(=O)CN1CCN(C/C=C/c2ccccc2)CC1,inactive: -60.6%,
COC(=O)c1ccc(CSc2nc(-c3ccccc3)cs2)o1,,active: 39.8 µM
Cc1cc(NCCOCCO)n2ncc(-c3ccc(Cl)cc3)c2n1,inactive: -31%,
CC(C)=CCC/C(C)=C/COc1c2ccoc2cc2oc(=O)ccc12,,active: 12.6 µM
O=C(CSc1nnc(COc2ccccc2)n1Cc1ccco1)c1ccc(F)cc1,,active: 15.8 µM
Cc1nc2cnc(Oc3ccccc3)nc2n(CCc2ccccc2)c1=O,,active: 1.58 µM
O=[N+]([O-])c1ccc(Cl)cc1Cl,inactive: 14.2%,
COC(=O)C1(C)Nc2ccccc2C(=O)N1c1ccccc1OC (centres undefined),inactive: 24.4%,
Cc1ccc(NC(=O)Cn2cccc2)cc1Cl,inactive: 1.25%,
O=C1CCCN1c1ccc(S(=O)(=O)N2CCN(c3ccccn3)CC2)cc1,inactive: 0.758%,
COc1cc(Nc2nc(SCC#N)nc3ccccc23)cc(OC)c1OC,inactive: -43.5%,
Cc1ccc(/C=C/C2=Cc3c(sc(NC(=O)CSc4n[nH]c(N)n4)c3C#N)C(C)(C)C2)o1,inactive: -6.22%,
N=C1C(c2ccc(Br)cc2)=C(O)C2CCc3ccccc3N12 (centres undefined),inactive: -64.8%,
COc1cc(Cc2cnc(N)nc2N)cc(OC)c1OC,,inactive
CCC(C)(C)n1nnnc1C(c1cccs1)N1CCN(Cc2ccccc2)CC1 (centres undefined),,active: 12.6 µM
CC1CCC2C(=O)OC(CN=[N+]=[N-])CN2C1c1ccc(Br)cc1 (centres undefined),inactive: -3.42% [at 11.4 µM] and inactive: 14.2% [at 11.4 µM] and inactive: -1.14% [at 11.4 µM],
CCCCOC(=O)c1ccc(N)cc1,inactive: -14% [at 25.6 µM],
O=C(Nc1ccc2c(c1)OCO2)c1nn(-c2ccccc2)c(=O)c2ccccc12,,active: 25.1 µM
N#Cc1c(/N=C/N2CCCC2)oc(-c2ccccc2)c1-c1ccccc1,inactive: 9.01%,
CCN(CC)CCNC(=O)CS(=O)Cc1nc(-c2ccccc2Cl)oc1C (centres undefined),inactive: 8.68%,
Cc1cc2oc(=O)cc(CN3CCC(C)CC3)c2cc1Cl,,active: 25.1 µM
COC(=O)[C@@]1(Cc2ccc(F)cc2)[C@H]2c3cc(C(=O)N4CCCC4)n(Cc4cc(C)n(C)n4)c3C[C@H]2CN1C(=O)c1ccccc1,,active: 15.8 µM

Structure (SMILES),activation,Potency
C[C@]1(C(=O)NCc2cc(F)cc(C(F)(F)F)c2)C=C[C@@H](Cc2ccccc2)N1C(=O)c1ccccc1,,active: 15.8 µM
N#C/C(C(N)=O)=c1/ccc2c(c1)N1C3=C(CCCC3)CC3CCCCC31N=2 (centres undefined),inactive: -106%,
O=C(C1CCC(CNc2c(N3CCCCC3)c(=O)c2=O)CC1)N1CCCCC1 (centres undefined),inactive: 25.7%,
COc1ccc(CNc2nc3c(c(=O)n(Cc4ccc(Br)cc4)c(=O)n3C)n2C)cc1,inactive: -36.6%,
c1ccc(-n2nnnc2SCc2cn3ccccc3n2)cc1,inactive: 3.16%,
COC(=O)c1cc(CSc2nc3ccc(C)cc3[nH]2)oc1C,,active: 20 µM
COc1ccc(CCn2c(=N)c(C(=O)NCc3ccco3)cc3c(=O)n4cccc(C)c4nc32)cc1,inactive: -52.4%,
CN[C@@H](CC(C)C)C(=O)N[C@@H]1C(=O)N[C@H](CC(N)=O)C(=O)N[C@@H]2C(=O)N[C@H]3C(=O)N[C@H](C(=O)N[C@H](C(=O)O)c4cc(O)cc(O)c4-c4cc3ccc4O)[C@H](O)c3ccc(c(Cl)c3)Oc3cc2cc(c3O[C@H]2O[C@@H](CO)[C@@H](O)[C@@H](O)[C@@H]2O[C@@H]2C[C@](C)(N)[C@H](O)[C@H](C)O2)Oc2ccc(cc2Cl)[C@@H]1O,inactive: -10.3% [at 25.6 µM],
Cc1c(N=Cc2ccc(-c3ccc(Cl)cc3)o2)c(=O)n(-c2ccccc2)n1C,inactive: -36.6%,
CCOC(=O)c1c(C)c(C(=O)Nc2cc(F)ccc2F)c(C)n1C,,active: 7.94 µM
CCOc1cccc(NC(=O)C2CC(=O)N(C)C(=Nc3cccc(F)c3)S2)c1 (centres undefined),inactive: -30.9%,
O=C(c1cc(C(F)(F)F)cc(C(F)(F)F)c1)N1CCC2(CCCN(c3ccccn3)C2)CC1,,active: 25.1 µM
CCc1c2c(nc3cccc(OC)c13)OC(CC)C2 (centres undefined),,active: 15.8 µM
Cc1c(C(=O)O)cccc1[N+](=O)[O-],inactive: 0.384%,
NCCNC(=O)c1ccc(Cl)cc1,inactive: 0.0319%,
COC(=O)[C@@]1(Cc2ccccc2)[C@H]2c3cc(C(=O)N4CCCC4)n(CCc4ccccn4)c3C[C@H]2CN1C(=O)c1ccccc1,,active: 15.8 µM
Cc1ccccc1CSc1nc2n(n1)C(c1cccs1)C1=C(CCCC1=O)N2 (centres undefined),inactive: 5.39%,
CC(=O)O[C@@H](C)C[N+](C)(C)C,inactive: 11.4% [at 25.6 µM],
COc1ccc2c(c1)c(C(O)CN1CCN(Cc3ccc4c(c3)OCO4)CC1)c(C)n2C (centres undefined),inactive: -66.8%,
CCSC1=C(C#N)C(=O)n2c1cc1c2CCCC1,inactive: -85.8%,
COc1ccc(-c2cc(C(F)(F)F)n3ncc(C(=O)NCC4CCCO4)c3n2)cc1 (centres undefined),,active: 10 µM
Cn1c(-c2ccc3c(c2)OCO3)cnc1NCc1cccc(Cl)c1,inactive: -74.5%,
CC(C)(C)NC(=O)C(c1ccco1)N(Cc1ccc2c(c1)OCO2)C(=O)Cn1nnc2ccccc21 (centres undefined),,active: 15.8 µM
CN(C)CCCn1c2c3ccccc3ccc2c2oc(=O)c3ccccc3c21,inactive: -45.2% [at 11.4 µM],

Structure (SMILES),activation,Potency
O=C(c1cc(C(F)(F)F)cc(C(F)(F)F)c1)N1CCC2(CCCN(c3ccncc3)C2)CC1,,active: 7.94 µM
COCCNCC(=O)C12CC3CC(CC(C3)C1)C2,inactive: 44.7%,
c1ccc(CN(CC2=NCCN2)c2ccccc2)cc1,inactive: 11.9% [at 25.6 µM],
Cc1cc(NC(=O)Cc2cn3ccsc3n2)n(-c2ccccc2)n1,inactive: -0.588%,
Cc1cccc(NC(=O)c2cc3ccccc3o2)c1,,active: 25.1 µM
O=c1oc2ccc3ccccc3c2cc1-c1nnc(-c2ccccc2)o1,inactive: -38.5%,
C=CC(=O)OCCCCCCOC(=O)C=C,inactive: 17.5%,
CCOC(=O)c1c(NC(=O)Cc2cccs2)sc(C)c1C,,active: 25.1 µM
CC1=CC(=O)CC(C)(C)C1(O)/C=C/C(C)=C\C(=O)O (centres undefined),inactive: -23.7%,
CC(=O)Nc1ccc(S(=O)(=O)N2CCN(c3nc(NC4CCCC4)c4ccccc4n3)CC2)cc1,inactive: -53.3% [at 11.4 µM],
O=C(CSc1ccc2nnc(-c3cccnc3)n2n1)NCc1ccco1,inactive: -8.78%,
COc1cc(NC(=O)Nc2ccccc2OC)c(OC)cc1NC(=O)CN1CCCCC1,inactive: -39%,
CCC(C(=O)NC1CCCC1)N(C(=O)c1snc(C(N)=O)c1N)c1ccc2c(c1)OCCO2 (centres undefined),,active: 25.1 µM
CC(=O)c1ccccc1OCC(O)CN1CCN(C(c2ccccc2)c2ccccc2)CC1 (centres undefined),inactive: -65.2%,
COCC(=O)Nc1ccccc1NC(C)=O,inactive: 1.31%,
CN(Cc1cnc2nc(N)nc(N)c2n1)c1ccc(C(=O)N[C@@H](CCC(=O)O)C(=O)O)cc1,inactive: -5.32%,
COc1ccc(C)c(Cn2c(-c3nonc3N)nc3ccccc32)c1,,active: 25.1 µM
Fc1ccc(OCc2nc(-c3ccc(Br)o3)no2)c(F)c1,,active: 2.51 µM
CC(C)c1ccc(Cn2ccc3c4c(N)nc(NC5CC5)nc4ccc32)cc1,inactive: -54.6%,
O=c1[nH]c(=O)n([C@H]2C[C@H](O)[C@@H](CO)O2)cc1Br,inactive: 12%,
COc1ccccc1N1CCN(C(=O)c2ccc(CS(=O)(=O)c3ccccc3OC)o2)CC1,inactive: -37%,
CCn1c(=NC(=O)CSC(C)=O)sc2cc(F)ccc21,inactive: -31.8%,
Oc1ccc(-c2nc3ncccn3c2Nc2ccc3c(c2)OCCO3)cc1,inactive: -40.3%,
CCCN1C[C@H](CSC)C[C@H]2c3cccc4[nH]cc(c34)C[C@@H]21,inactive: 5.25%,

Structure (SMILES),activation,Potency
Clc1ccc(N2CCN(Cc3c[nH]c4ncccc34)CC2)cc1,inactive: 11.7%,
CN(C)c1ccc(C(=C2C=CC(=[N+](C)C)C=C2)c2ccc(N(C)C)cc2)cc1,inactive: -39.6%,
CC(C)c1ccc2c(c1)c(SC(C)(C)C)c(CC(C)(C)C(=O)O)n2Cc1ccc(Cl)cc1,inactive: -3.64%,
Cc1nn(-c2nc3ccccc3s2)c(C)c1Oc1ccccc1O,inactive: -35.3%,
Nc1nc(N2CCN(C/C=C/c3ccccc3)CC2)nc2ccccc12,inactive: -42.5%,
CN(C)c1ccnc2sc(C(=O)NCc3ccccc3)c(N)c12,inactive: -33.1%,
NCCOB(c1ccccc1)c1ccccc1,inactive: -34%,
O=C(CSc1nnc(-c2ccc(Cl)cc2)n1Cc1ccco1)c1cccs1,,active: 15.8 µM
COc1cc(N)c(Cl)cc1C(=O)N[C@H]1CCN(CCCOc2ccc(F)cc2)C[C@@H]1OC,inactive: -60.8%,
Clc1ccccc1OCc1nc(-c2ccccn2)no1,inactive: -55.1%,
COc1ccc(N2CCN(c3nc4ccccc4n3CC(=O)c3ccccc3)CC2)cc1,inactive: -44.3%,
COc1cccc(/C=N/n2c(-c3ccco3)nc3ccccc3c2=O)c1,,active: 15.8 µM
Cc1ccc(C(c2nnnn2CCc2ccccc2)N2CCSCC2)cc1 (centres undefined),,active: 20 µM
COc1ccc(OC)c(S(=O)(=O)N2CCC(C(=O)Nc3cccc(C(F)(F)F)c3)CC2)c1,inactive: -0.432%,
COC(=O)Cc1cc(=O)n(-c2nc3ccccc3s2)[nH]1,inactive: -40.5%,
CN(C)c1ccc(-c2ccc3ncnc(NCc4ccccc4)c3c2)cc1,inactive: -52.6%,
CNC(=O)[C@H](C)[C@H]1C[C@]1(C)[C@H](NC(=O)OCc1ccccc1)c1ccccc1,,active: 6.31 µM
CC[C@H](C)C(=O)O[C@@H]1C[C@H](C)C=C2C=C[C@H](C)[C@@H](CC[C@H]3C[C@@H](O)CC(=O)O3)[C@H]21,inactive: 8.46% [at 25.6 µM],
Cn1c(=O)c2c(nc(N3CCCCCC3)n2CC(=O)c2ccc(Br)cc2)n(C)c1=O,inactive: -33.2%,
CCCCC[C@H](O)C=C[C@H]1[C@H](O)CC(=O)[C@H]1CCCCCCC(=O)O,,active: 0.01 µM
Cc1cccc(C(C)C)c1-n1nnnc1-c1ccccc1,,active: 20 µM
CC(=O)Nc1ccc(C(=O)O)cc1,inactive: -12.6%,
